Screen size: about 310,000 compounds; about 2,200 (0.71%) showed an effect of 50% or more. The effect is printed as a negative number. Some of the results follow.

Sequence of human ether-à-go-go-related gene (hERG) potassium channel (Q12809 whole entry, looked up): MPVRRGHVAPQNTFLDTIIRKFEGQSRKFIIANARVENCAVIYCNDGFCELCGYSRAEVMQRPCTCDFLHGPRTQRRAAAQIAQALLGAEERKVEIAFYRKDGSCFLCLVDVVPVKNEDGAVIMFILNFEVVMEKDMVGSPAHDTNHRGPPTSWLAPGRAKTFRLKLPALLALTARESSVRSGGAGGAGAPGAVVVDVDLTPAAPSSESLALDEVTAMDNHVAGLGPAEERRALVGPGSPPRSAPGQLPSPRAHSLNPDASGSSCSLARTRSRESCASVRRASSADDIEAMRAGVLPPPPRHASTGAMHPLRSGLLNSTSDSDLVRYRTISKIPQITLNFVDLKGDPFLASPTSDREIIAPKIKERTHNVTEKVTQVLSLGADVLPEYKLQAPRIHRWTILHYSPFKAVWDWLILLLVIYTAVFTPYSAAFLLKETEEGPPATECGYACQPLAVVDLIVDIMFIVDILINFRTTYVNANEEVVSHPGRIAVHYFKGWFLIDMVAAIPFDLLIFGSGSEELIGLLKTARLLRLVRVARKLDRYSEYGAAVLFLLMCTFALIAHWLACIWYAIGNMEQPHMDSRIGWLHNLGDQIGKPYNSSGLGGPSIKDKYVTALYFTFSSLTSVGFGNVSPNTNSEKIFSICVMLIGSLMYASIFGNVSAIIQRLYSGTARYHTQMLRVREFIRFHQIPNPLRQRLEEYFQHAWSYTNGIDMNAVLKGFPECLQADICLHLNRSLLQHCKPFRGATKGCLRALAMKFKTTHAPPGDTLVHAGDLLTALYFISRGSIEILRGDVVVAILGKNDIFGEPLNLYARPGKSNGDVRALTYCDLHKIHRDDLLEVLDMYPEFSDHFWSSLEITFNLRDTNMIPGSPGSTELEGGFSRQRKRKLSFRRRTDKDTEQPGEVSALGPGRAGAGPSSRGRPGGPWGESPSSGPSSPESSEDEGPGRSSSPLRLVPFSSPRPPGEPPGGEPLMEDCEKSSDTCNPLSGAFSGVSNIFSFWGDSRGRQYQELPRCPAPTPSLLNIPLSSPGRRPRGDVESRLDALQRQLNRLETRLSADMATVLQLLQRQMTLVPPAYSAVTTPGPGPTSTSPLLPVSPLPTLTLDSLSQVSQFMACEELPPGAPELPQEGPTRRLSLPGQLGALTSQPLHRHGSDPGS

The experiment has as its target human ether-à-go-go-related gene (hERG) potassium channel (human, UniProt Q12809). The experiment in a line: primary screen, population patch clamp on CHO cells stably expressing hERG.
Regarding `CC(=O)Nc1cc(NC(C)=O)cc(C(=O)OC(C)C(=O)Nc2ccc(S(=O)(=O)N3CCCC3)cc2)c1` (stereo not shown), the “hERG current change (%, negative = inhibition) at 1uM” value amounted to 8.74%.
On to `CCCCc1ccc(NC(=S)N2CCN(C)CC2)cc1`, for which the “hERG current change (%, negative = inhibition) at 1uM” value is given as 4.95%.
Under `COc1ccc(N(CC(=O)Nc2ccccc2C(F)(F)F)C2=NC3CS(=O)(=O)CC3S2)cc1` (stereo not shown) stands 10.4%.
The result for `O=C(O)CCc1ccc(-c2ccc(Cl)cc2)n1NC(=O)c1ccc(O)cc1` reads 19.3%; that for `CCOC(=O)C(=CNc1ccc(Cl)cn1)C(=O)OCC`, 16.5%.
Consider `O=C(Nc1cccc([N+](=O)[O-])c1)C1CC(=O)N(Cc2ccccc2)C1` (stereo not shown), for which the “hERG current change (%, negative = inhibition) at 1uM” value was -18.8%.
In the case of `CCOc1cc2c(C#N)c(N(CC)CC)nc(N)c2c(N)n1`, the “hERG current change (%, negative = inhibition) at 1uM” value amounted to 3.88%.
The result for `CCOC(=O)N1CCN(c2c(NCCCOC(C)C)c(=O)c2=O)CC1` reads 1.53%; that for `COc1ccccc1C(N)=S`, 4.87%.
As for `CCc1cc(=O)oc2cc(OCC(=O)N3CCC(C(N)=O)CC3)ccc12`, the “hERG current change (%, negative = inhibition) at 1uM” value was found to be 9.16%.
Take `COc1ccc(CC(=O)NCc2ccc(-n3cccc3)cc2)cc1OC`: the “hERG current change (%, negative = inhibition) at 1uM” value came out at 12.8%.
The result for `O=C(NNc1c(Cl)cncc1Cl)c1sccc1Cl` reads 8.1%; that for `CN(C)C(CNC(=O)c1cccs1)c1cccnc1` (stereo not shown), 17.8%; that for `COc1cccc(-c2cc(C(=O)N3CCN(C(=O)c4ccco4)CC3)[nH]n2)c1`, 6.31%.
The result for `CC(Sc1nnnn1-c1ccccc1)C(=O)Nc1ccc(Cl)cn1` (stereo not shown) reads 10.8%; that for `CCOC(=O)c1ccc(NS(=O)(=O)c2ccc3c(c2)n(C)c(=O)n3C)cc1`, 18.5%.
Under `CCS(=O)(=O)N1Cc2ccccc2CC1C(=O)Nc1cccc(OC)c1` (stereo not shown) stands 10%; under `O=C(CSc1nc2ccccc2o1)Nc1ccccc1N1CCOCC1`, 1.84%; under `Cc1cnc(=O)[nH]c1SCc1ccc([N+](=O)[O-])cc1`, -17.5%.
For the compound `Cc1ccc(S(=O)(=O)Nc2ccc3c(c2)C(=O)NC3=O)cc1[N+](=O)[O-]`, the “hERG current change (%, negative = inhibition) at 1uM” value is 17.3%.
Under `O=C(CCSCc1ccccc1F)NCCc1ccccc1` stands 13.7%.
Under `CC(C)C(=O)Nc1c2c(nn1-c1ccc(F)cc1)CS(=O)(=O)C2` stands 13.7%; under `O=C(CCc1nnc2ccc(NCc3ccccc3)nn12)NC1CCCCC1`, 17.1%; under `Cc1cc(Br)ccc1SCC(=O)OCC(=O)Nc1ccc2[nH]c(=O)[nH]c2c1`, 15.4%.
For `CC1CCC2(CC1)OCC1(CCC3(COC4(CCC(C)CC4)OC3)C1=O)CO2` (stereo not shown), the “hERG current change (%, negative = inhibition) at 1uM” value stood at 13.6%.
Consider `Cc1ccc(OCC(=O)NCCCNC(=O)c2cnccn2)cc1C`, for which the “hERG current change (%, negative = inhibition) at 1uM” value was found to be 9.1%.
The result for `Cc1cc(Nc2cccc(F)c2)nc(-c2ccccc2O)n1` reads 14.8%; that for `COc1ccc(Cc2nc3ccc(C(=O)NCCn4ccnc4C)cc3o2)cc1OC`, -12.6%.
The result for `CCN(CC)C(=O)CCS(=O)(=O)c1cccc2nonc12` reads 9.67%; that for `Cc1nnc2ccc(Oc3ccc(-c4ccccc4)cc3)nn12`, 12.5%.
On to `COCCNC(=O)c1ccc2c(c1)ncn2-c1ccc(F)c(F)c1`, for which the “hERG current change (%, negative = inhibition) at 1uM” value is -3.09%.
For the compound `Cc1cc(C)c2c(=O)n(CC(=O)Nc3cccc(F)c3)sc2n1`, the “hERG current change (%, negative = inhibition) at 1uM” value is -0.269%.
Regarding `Cc1cc2ncc(S(C)(=O)=O)c(N)n2n1`, the “hERG current change (%, negative = inhibition) at 1uM” value was 16.2%.
Consider `CN=C(Nc1ccc(Br)cc1)SC1CC(=O)N(c2ccc(OC)cc2)C1=O` (stereo not shown), for which the “hERG current change (%, negative = inhibition) at 1uM” value is on record as 19.3%.
Turning to `O=C(NC1CCCCC1)C(c1ccc(F)cc1)N(Cc1ccc2c(c1)OCO2)C(=O)c1cnsn1` (stereo not shown), the “hERG current change (%, negative = inhibition) at 1uM” value is -3.38%.
The result for `CCCOc1ccc(-c2nc[nH]c2[N+](=O)[O-])cc1` reads 18.1%.
As for `Cc1ccc(CNC(=O)C2CCC(=O)N2Cc2ccc(C)cc2)cc1` (stereo not shown), the “hERG current change (%, negative = inhibition) at 1uM” value is given as -23.5%.
For `NC(=O)CC(O)c1cccc(Cl)c1` (stereo not shown), the “hERG current change (%, negative = inhibition) at 1uM” value amounted to 9.26%.
On to `CC(=O)Nc1ccc(NC(=O)CSc2ncc(C(=O)Nc3ccc(Cl)cc3)c(=O)n2C)cc1`, for which the “hERG current change (%, negative = inhibition) at 1uM” value worked out at 0.0038%.
The result for `OCn1c2ccccc2c2ccccc21` reads 15.7%; that for `COc1cc(C)c(C(C)C)cc1S(=O)(=O)n1ccnc1`, 3.1%.
Take `Cc1cc(C)cc(NC(=O)COc2coc(CN3CCN(c4ccccc4)CC3)cc2=O)c1`: the “hERG current change (%, negative = inhibition) at 1uM” value came out at 14.2%.
Under `CCN(CC)S(=O)(=O)c1ccc(Cl)c(NC(=O)c2cc(Cl)ccc2Cl)c1` stands 9.69%; under `CNC(=O)c1ccc(-c2ccc(Cl)c(Cl)c2)s1`, 7.78%.
Under `CCNc1nc(NCC)n2c(SC(C(=O)Nc3cc(Cl)cc(Cl)c3)c3ccccc3)nnc2n1` (stereo not shown) stands 11.1%; under `CCOc1ccccc1NC(=O)CN(Cc1ccccc1)S(C)(=O)=O`, -7.35%.
The result for `C=CCn1c(C)cc(C(=O)CSc2nnc3c(Cl)cc(Cl)cn23)c1C` reads -8.59%; that for `COc1ccc(C(=O)Nc2ccccc2C(=O)NCc2ccco2)cc1`, 10.7%; that for `COc1ccc(C)cc1NC(=O)c1ccc(S(=O)(=O)N2CCCCC2)cc1`, 19.1%.
In the case of `O=C(N1CCOCC1)C(F)(F)C(F)(F)C(F)(F)C(F)(F)C(=O)N1CCOCC1`, the “hERG current change (%, negative = inhibition) at 1uM” value stood at 2.47%.
In the case of `CC(c1ccc2c(c1)OCO2)n1c(=S)[nH]c2ccccc2c1=O` (stereo not shown), the “hERG current change (%, negative = inhibition) at 1uM” value came to 10.5%.
Turning to `Cc1noc(NS(=O)(=O)c2ccc(N3Cc4ccccc4C3=O)cc2)c1C`, the “hERG current change (%, negative = inhibition) at 1uM” value came out at 12.9%.
Take `CCOc1ncccc1C(=O)OCC(=O)NC(=O)c1ccccc1`: the “hERG current change (%, negative = inhibition) at 1uM” value amounted to 8.25%.
Regarding `CC(C)CC(NC(=O)OC(C)(C)C)c1cn([C@@H](CCCCNC(=O)OC(C)(C)C)C(=O)N2CCN(C(=O)OC(C)(C)C)CC2)nn1` (stereo partly shown), the “hERG current change (%, negative = inhibition) at 1uM” value is recorded as 15.1%.
The result for `CCc1ccc(C(=O)Nc2cc(C)on2)o1` reads 14.8%; that for `Cc1cccc(-n2c(-c3ccccc3)nc3ccccc3c2=O)n1`, 7.74%.
The result for `O=C(NC1CCCCC1)C(c1ccccc1)N1CCCC1` (stereo not shown) reads 9.11%.
Regarding `COc1ccc(-c2nnc3c4ccccc4c(C)nn23)cc1`, the “hERG current change (%, negative = inhibition) at 1uM” value stood at 1%.

The values above are taken from article PMC4336329 (PLoS ONE, 2015).
